The results in this text go back to US20240279191A1, “SMALL MOLECULE INHIBITORS OF TEAD-YAP” (The General Hospital Corporation, priority 2021, published 2024).

SMILES strings stand for the structures.

This test relates to MSTO-211H cells. The test can be described thus: Cell proliferation assay (MTT), MSTO-211H. To be noted: Homo sapiens, read-out: IC50 MSTO-211H cell proliferation.

For `O=C(Nc1ccccc1)N1CCN(C(=O)c2cccc(OCCC3CCCCC3)c2)CC1` [TM2, 4-(3-(2-cyclohexylethoxy)benzoyl)-N-phenylpiperazine-1-carboxamide], the IC50 came to 94 nM.
